Whole data set: some 33,000 sequences, median “E-score (-0.5 to 0.5)” near -0.013, cut for the highest 2% near 0.3. This is one part of the list.
What follows are sequences tested against T1, Msn1 (UniProt P22148) (assay: PBM E-score (8-mer binding enrichment) (E-score (-0.5 to 0.5)); higher = stronger / more preferred TF binding; most listed sequences are background and not binding sites). Details: protein concentration: 200 nM; construct: GST-full length.
T1 sequence: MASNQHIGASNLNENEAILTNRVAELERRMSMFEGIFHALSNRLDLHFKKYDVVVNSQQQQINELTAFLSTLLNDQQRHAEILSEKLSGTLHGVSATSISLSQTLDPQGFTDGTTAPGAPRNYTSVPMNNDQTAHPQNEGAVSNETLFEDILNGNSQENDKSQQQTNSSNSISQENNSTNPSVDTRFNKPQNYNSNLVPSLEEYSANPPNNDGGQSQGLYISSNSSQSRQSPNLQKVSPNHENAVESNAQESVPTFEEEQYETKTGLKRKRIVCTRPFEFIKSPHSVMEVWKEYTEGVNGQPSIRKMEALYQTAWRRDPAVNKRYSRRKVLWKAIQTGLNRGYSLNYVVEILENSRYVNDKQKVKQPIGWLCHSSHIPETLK
Summary of the method: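 Universal all-10-mer Agilent arrays, fresh or stripped once, were converted to double-stranded form by primer extension. GST-tagged yeast transcription factors from PURExpress in vitro transcription/translation, full-length or DNA-binding domain only, were applied at about 100-200 nM and detected with fluorescent anti-GST. After masliner normalisation, the Universal PBM Analysis Suite scored each ungapped eight-base word together with its reverse complement by E-score.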

Row | Sequence | PBM E-score
1 | CGAGTCCG | 0.129
2 | AAGACTGG | -0.067
3 | CGACAGAG | -0.144
4 | AGAAGGTC | -0.0548
5 | GGAGCAGA | -0.173
6 | AGAAGTAT | 0.0725
7 | CGCGTAGA | 0.0693
8 | ACCGAAGG | -0.0834
9 | GAGGTGGA | -0.0847
10 | GCCGAGGA | 0.195
11 | AGCACGGG | -0.276
12 | CAATAGAG | -0.125
13 | ACGTGCCG | -0.00165
14 | CATACCTA | -0.191
15 | TCGTGACA | 0.314
16 | CCCCCGGG | -0.241
17 | ACCGCCAG | -0.04
18 | AAGTGACG | 0.00399
19 | GAAAGTAA | 0.155
20 | AAGAGCAA | -0.225
21 | ACATCGGT | 0.155
22 | CGCTAAAA | -0.154
23 | GTGCGCAC | 0.0927
24 | CCCATAGA | -0.212

Row | Sequence | PBM E-score
25 | AATGACAT | 0.42
26 | CATTGAAC | -0.0322
27 | ACCTCAAG | -0.0697
28 | TAAAGTAA | 0.13
29 | GTTCTATA | 0.048
30 | AGATCAGG | -0.0254
31 | CTTGACCC | -0.147
32 | AGCGTCAC | -0.0789
33 | CTTCATGC | -0.141
34 | ATGATTCC | 0.0976
35 | GAGTCGAA | -0.0105
36 | TATGCACA | 0.00087
37 | GGCGCGTA | -0.0946
38 | GATATTCC | 0.0975
39 | CGCATATA | 0.0294
40 | CCCCCCTA | -0.341
41 | TCCTAGGA | 0.0899
42 | ACTTTACC | 0.11
43 | TGGGATAA | 0.0504
44 | ATCGGTCC | -0.0513
45 | CCTGATAG | -0.222
46 | AGAGCTCG | 0.006
47 | GTCTCGGA | 0.244
48 | AGGCTTGC | -0.255

Row | Sequence | PBM E-score
49 | AGTCAAAA | 0.0874
50 | CTTCAGGA | 0.0333
51 | ACACTTCA | 0.0896
52 | CCAGCATA | -0.125
53 | AGGAGAAC | -0.165
54 | CGTTGTAC | 0.173
55 | ATGGAGTA | -0.109
56 | ATCCAGCA | -0.118
57 | GCGTATAC | -0.0134
58 | GGTCAGCA | -0.107
59 | CCGCATAC | 0.0184
60 | GACGCGGA | 0.0749
61 | CAACGTCG | -0.0696
62 | ATCCCATG | -0.156
63 | ATGTGCTC | 0.0447
64 | CTCAAGGC | -0.171
65 | ATACACTC | 0.064
66 | GTGAGGGA | -0.164
67 | TAAGCACA | 0.118
68 | AATTCTGA | 0.112
69 | GTCCTCAA | 0.267
70 | CGGGTCCC | -0.301
71 | GGTTTGGA | 0.00891
72 | ACAGCCGG | 0.00237

Row | Sequence | PBM E-score
73 | ACCAAGCA | 0.0329
74 | CATATTAA | 0.32
75 | CCATTTTC | 0.136
76 | AGTTATGC | 0.0335
77 | ACCGCCTA | -0.0385
78 | ACAGCACC | -0.146
79 | ACTGTTAC | -0.0545
80 | AAGCTCGA | 0.102
81 | ATGTCTGA | 0.425
82 | CAGTGAAA | 0.0564
83 | AGTTATAA | 0.0713
84 | ATGTCGTG | 0.337
85 | CGCATGTA | 0.0633
86 | CGTACAAG | 0.0872
87 | CTAATTCA | 0.00319
88 | CTCCTTAC | -0.115
89 | AGCGTCCT | -0.081
90 | AGTTCCGC | 0.0164
91 | ACGAGGAT | -0.178
92 | GTTTTTCA | 0.109
93 | ACATTAAC | 0.254
94 | CCCTCTTC | -0.288

From the supplement of paper PMC3334620
